The source gives no read counts; variants with many changes may rest on few reads.
B1: LINE1-mini (parent)
chain: GGCAGAGCUCAACACAGCGUGGCAAAGUGGCUGUGGCUAGACUGCC

Variants of: B1
Assay: self-cleavage, relative activity (ratio to wild type); higher = more cleavage; in vitro, sequencing; the parent is a self-cleaving ribozyme

Row | Variant | self-cleavage
1 | C8A G21U G27U C31U U34G A41G | 0.11
2 | C8A G30A G33U | 0.32
3 | C8A C18G G22U | 0.18
4 | C8A A24U A25U G27C C46A | 0.13
5 | C8A G21A G22A A24C U28C G33U | 0.58
6 | C8A A16C G21A U38G | 0.03
7 | C8A G22A C23U | 0.7
8 | C8A A26U U28G U32G | 0.06
9 | C8A G33A C46A | 0.22
10 | C8A C10U G30U | 0.24
11 | C8A C15U G21U | 0.16
12 | C8A C18U U20A G21U C31G C45U | 0.11
13 | C8A G19C U20A C23A A24G C31U | 0.01
14 | C8A C10U G33A U38C | 0.04
15 | C8A G33C G36A C37U | 0.19
16 | C8A G17A G33A | 0.21
17 | C8A G17U A25G C37U | 0.05
18 | C8A G35U C42U | 0.06
19 | C8A U9A A12U A16G A39C | 0.05
20 | C8A A24C G29U C42G | 0.07
21 | C8A A16G G29U C37U U43G | 0.06

Row | Variant | self-cleavage
22 | C8A A14G U28C C31G G33U | 0.05
23 | C8A A14U U43C | 0.87
24 | C8A A16U G22C C37U | 0.11
25 | C8A G27A C37A | 0.08
26 | C8A C31G C46U | 0.11
27 | C8A C31G C46A | 0.13
28 | C8A G22U G27U | 0.23
29 | C8A U9A C18A G40C | 0.06
30 | C8A U9C C23A G27C | 0.12
31 | C8A G19U G33A | 0.37
32 | C8A U9A G33A C42G | 0.07
33 | C8A C10G C13U C18U A26U U38A C45A | 0
34 | C8A C15U G17U G19C A24C G40A G44C | 0.07
35 | C8A G19C G27U G36A | 0.14
36 | C8A A16G C37A A39G | 0.18
37 | C8A G30A G40U C42G | 0.2
38 | C8A G17A C37G | 0.07
39 | C8A C13U C37U | 0.28
40 | C8A G35A A41U | 0.56
41 | C8A G33C A39U | 0.11
42 | C8A G19C C37A G40A C46U | 0.01

Row | Variant | self-cleavage
43 | C8A C13A G22U | 0.25
44 | C8A C23G G29C U32G | 0.05
45 | C8A C10G A11G U20A A25U U28C A41C U43A | 0
46 | C8A C10G A14U | 0.03
47 | C8A G19A A39G | 0.05
48 | C8A G21U G27U U38A G40A | 0.11
49 | C8A C10U C37A A41G C46A | 0.01
50 | C8A G17U G33U | 0.12
51 | C8A C23G G29A U32G | 0.08
52 | C8A C10A C45U | 0
53 | C8A G19A G40C | 0.31
54 | C8A A14G A25U | 0.07
55 | C8A A39U C42G | 0.16
56 | C8A G22A G30A | 0.05
57 | C8A U9C A26C G33C | 0.05
58 | C8A A16G G30A | 0.08
59 | C8A G19C G22U C31G | 0.28
60 | C8A G30C C45A | 0.26
61 | C8A A26G G40A C42U | 0.1
62 | C8A C10U A16G A25U | 0.05
63 | C8A U9G G17U | 0.01

Row | Variant | self-cleavage
64 | C8A C15U C23U C31G U43A | 0.08
65 | C8A A26G G30A | 0.39
66 | C8A G29U G35C | 0.11
67 | C8A G17U G21U C31G | 0.06
68 | C8A G30A C31A G35C C45A | 0.06
69 | C8A C10U G17U | 0.1
70 | C8A G17A C31U A39U G44A C46A | 0.11
71 | C8A A14U G19U A25U G36A | 0.06
72 | C8A G19U A24C G35U C46U | 0.05
73 | C8A G17C G21C G35U | 0.05
74 | C8A C31A G40A | 0.52
75 | C8A A14C G17A A26C | 0.07
76 | C8A C10A G21A C42A | 0.35
77 | C8A U9A G33A C37U G44A | 0.23
78 | C8A C13U C18U G22A | 0.37
79 | C8A C31U C45U | 0.57
80 | C8A U9C G21U C23U | 0.26
81 | C8A U9A A16G G19C | 0.01
82 | C8A A14G G33U | 0.08
83 | C8A C15A C31G | 0.18
84 | C8A C23A A25U | 0.06
